Source: PubChem BioAssay AID1347165 (National Center for Advancing Translational Sciences (NCATS), 2019)
Hit rate of the full screen: of about 220,000 compounds, about 5,700 (2.6%) were called active. The inconclusive results got no clear call from the source; some entries with a clear call stand among them for comparison. Calls follow the shape of the dose curve; as a rule, active = well fitted inhibition curve with a large enough effect; inconclusive = small, poorly fitted or top-dose-only effect; inactive = no such curve, though single readings can be large or run the other way. Where the call is inconclusive, the potency comes from a doubtful curve fit.

Molecular target: Lysine-specific demethylase 5B (Homo sapiens) (UniProt Q9UGL1)
UniProt Q9UGL1, sequence (Q9UGL1 whole entry, looked up): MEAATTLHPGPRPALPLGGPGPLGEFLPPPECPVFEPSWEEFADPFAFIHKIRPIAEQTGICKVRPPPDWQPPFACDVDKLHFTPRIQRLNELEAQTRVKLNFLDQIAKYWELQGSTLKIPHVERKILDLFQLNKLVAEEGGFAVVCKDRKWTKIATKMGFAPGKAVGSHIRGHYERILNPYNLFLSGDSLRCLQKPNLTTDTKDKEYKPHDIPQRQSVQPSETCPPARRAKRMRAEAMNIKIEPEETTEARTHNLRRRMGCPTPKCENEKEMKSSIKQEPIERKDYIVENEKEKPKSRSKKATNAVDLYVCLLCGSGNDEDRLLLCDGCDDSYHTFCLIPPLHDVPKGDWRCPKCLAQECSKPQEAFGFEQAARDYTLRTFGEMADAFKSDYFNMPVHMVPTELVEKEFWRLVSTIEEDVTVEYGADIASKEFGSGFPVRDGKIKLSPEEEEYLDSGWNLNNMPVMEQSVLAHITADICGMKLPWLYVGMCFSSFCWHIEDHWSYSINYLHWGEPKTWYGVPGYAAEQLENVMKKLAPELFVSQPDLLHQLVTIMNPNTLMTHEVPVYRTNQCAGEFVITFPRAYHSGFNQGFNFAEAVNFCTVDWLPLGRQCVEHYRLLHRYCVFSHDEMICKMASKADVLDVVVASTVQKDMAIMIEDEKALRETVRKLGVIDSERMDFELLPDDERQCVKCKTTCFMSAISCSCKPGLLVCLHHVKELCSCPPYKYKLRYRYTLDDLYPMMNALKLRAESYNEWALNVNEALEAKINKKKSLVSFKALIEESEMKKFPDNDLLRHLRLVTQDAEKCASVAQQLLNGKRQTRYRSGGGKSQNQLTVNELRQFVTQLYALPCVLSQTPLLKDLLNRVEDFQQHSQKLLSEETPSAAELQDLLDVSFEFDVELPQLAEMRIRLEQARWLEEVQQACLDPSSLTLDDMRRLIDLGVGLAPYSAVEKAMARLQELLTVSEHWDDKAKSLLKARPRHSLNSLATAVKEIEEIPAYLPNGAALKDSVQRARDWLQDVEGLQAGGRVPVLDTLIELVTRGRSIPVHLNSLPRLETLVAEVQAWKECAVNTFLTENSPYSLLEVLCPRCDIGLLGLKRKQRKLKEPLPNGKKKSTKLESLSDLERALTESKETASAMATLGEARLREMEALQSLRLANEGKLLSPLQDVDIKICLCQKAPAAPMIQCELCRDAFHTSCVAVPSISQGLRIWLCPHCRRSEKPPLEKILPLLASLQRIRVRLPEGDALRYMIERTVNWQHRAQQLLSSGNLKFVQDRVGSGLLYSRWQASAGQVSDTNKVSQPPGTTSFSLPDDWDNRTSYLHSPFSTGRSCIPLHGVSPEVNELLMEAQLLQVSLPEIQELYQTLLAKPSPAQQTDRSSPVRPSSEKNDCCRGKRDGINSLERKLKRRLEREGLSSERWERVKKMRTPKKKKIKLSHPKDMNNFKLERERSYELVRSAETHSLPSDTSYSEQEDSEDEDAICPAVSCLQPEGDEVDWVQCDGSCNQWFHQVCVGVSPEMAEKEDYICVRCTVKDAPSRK
Assay: Primary screen for KDM5B Histone Demethylases FDH-coupled qHTS; also: nearly all actives have a fitted effect of over 70% in size; as to activity change, negative = inhibition: 0% is about no effect
Details: FDH-coupled NADH fluorescence (FDH is formaldehyde dehydrogenase); activity change, negative = inhibition: at 57.7 µM (top of the series) unless noted
In short: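 Coupled FDH/NAD⁺ fluorescence readout. KDM5BΔAP 200 nM final; compound titration, 10 min RT preincubation; substrate mix 12.5 µM H3K4me3, 25 µM 2-OG, 50 µM Fe(II), 100 µM ascorbate, 0.25 mM NAD⁺, 0.25 U/mL FDH; ΔRFU over 30 min.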
Potency is read from the fitted curve at half-maximal effect; tags tell the direction and shape of the fitted curve.

Structure (SMILES) | Potency | activity change, negative = inhibition
Cc1nn2c(c1-c1ccccc1Oc1ccccc1)N(Cc1ccccc1O)CCC2 | active: 28.2 µM | –
O=C(N[C@@H]1CCOC[C@H]1O)c1cnn2cc(CCO)cnc12 | active: 28.2 µM | –
CC(C)Oc1ccc(CN2CCC(CO)(Cc3ccccc3Cl)CC2)cc1CO | inactive | –
Cc1ccc(-c2nc3cc(NC(=O)/C=C/c4ccco4)ccc3o2)cc1 | inconclusive: 20 µM [inhibitor, single point] | –
CCc1ccc2nc(-c3ccncc3)cc(C(=O)O)c2c1 | inactive | –
Cc1c(NC(=O)c2ccc(Cl)cc2)cc(C(C)C)c(O)c1S(=O)(=O)c1ccccc1 | inconclusive: 15.8 µM [inhibitor, partial curve, poor fit] | –
Cc1ccccc1-c1nc2scc(CCNC(=O)C(=O)Nc3c(C)cccc3C)n2n1 | inactive | –
O=C(C1CCCC1)N1CCCC(c2noc(COc3ccccc3F)n2)C1 (stereo unspecified) | inactive | –
O=C(COc1ccc(Cl)cc1Cl)c1ccccc1 | inactive | –
O=C1NCC2(CCN(C(=O)c3ccc4c(c3)OCO4)CC2)Oc2ccccc21 | inactive | –
Clc1ccc(-c2nc(NCc3ccc4c(c3)OCO4)c3ccccc3n2)cc1 | inconclusive: 39.8 µM [inhibitor, single point] | –
Cn1c(=O)c2c(nc(SCC(N)=O)n2Cc2ccc(Cl)cc2)n(C)c1=O | inactive | –
COc1ccc(N2C(=O)CCC2(C)C(=O)NC2CCCC2)c(OC)c1 (stereo unspecified) | inactive | –
O=C(NCc1ccc(F)cc1)c1nc2sccn2c1Br | inactive | –
COc1cccc(NC(=O)c2cnc3c(c2)N(C(=O)Cc2cn(C)c4ccccc24)CCC3)c1 | inconclusive: 39.8 µM [inhibitor, single point] | –
COc1cc(/C=C/c2ccc3cccc(O)c3n2)cc(OC)c1 | inconclusive: 39.8 µM [inhibitor, single point] | –
COc1ccccc1-c1nc2cnccn2c1NCCC(=O)Nc1cc(F)ccc1F | active: 28.2 µM | –
CC(C)c1ccc2occ(CC(=O)Nc3cccc(C(F)(F)F)c3)c2c1 | inactive | –
COc1ccc(Cl)cc1-c1ccc2c(c1)C(=O)N1CC[C@H](NC(=O)NC(C)C)[C@H]1C(=O)N2 | inconclusive: 28.2 µM [inhibitor, single point] | –
Cc1nc(-c2ccc(CCNC(=O)c3nccnc3N)s2)cs1 | inconclusive: 22.4 µM [inhibitor, partial curve, poor fit] | –
O=c1[nH]cccc1NS(=O)(=O)c1ccccc1Cl | inconclusive: 12.6 µM [inhibitor, partial curve, poor fit] | –
CCOC(=O)C1C(=O)C=C(c2cccs2)CC1c1ccc(CC)cc1 (stereo unspecified) | inactive | –
CCN1CCN(c2oc(/C=C/c3ccccc3)nc2C#N)CC1 | inconclusive: 25.1 µM [inhibitor, partial curve, poor fit] | –

Structure (SMILES) | Potency | activity change, negative = inhibition
CN1[C@@H](CCC(=O)N2CCN(c3ccccn3)CC2)CNC(=O)[C@@H]2[C@H]1CCN2Cc1csnn1 | active: 28.2 µM | –
CCOc1ccc(C(=O)N2CCC(c3ccncc3)CC2)cc1 | inconclusive: 28.2 µM [inhibitor, single point] | –
CCCNc1cc(N2CCC(CCC(=O)NCC3CC3)CC2)ncn1 | inactive | –
CC1CCCCN1c1nc(-c2ccc(C(C)(C)C)cc2)nc2ccccc12 (stereo unspecified) | inconclusive: 39.8 µM [inhibitor, single point] | –
COC(=O)c1ccc2nc(C[C@@H]3C[C@@H](C(C)C)[C@H](CNC4CCN(C)CC4)C=C3C)[nH]c2c1 | inconclusive: 15.8 µM [inhibitor, partial curve, poor fit] | –
Cc1ccc(C)c(N2CCN(C(=O)Cn3c(C)c4cnn(-c5ccccc5)c(=O)c4c3C)CC2)c1 | inconclusive: 1.26 µM [inhibitor, full curve, poor fit] | –
CCOC(=O)c1cc(OC(=O)c2cccc(Cl)c2)n(-c2ccccc2)n1 | inconclusive: 20 µM [inhibitor, partial curve, poor fit] | –
COc1ccc(C(NC(=O)COc2ccccc2)c2nccn2C)cc1 (stereo unspecified) | inactive | –
O=C(NCC(=O)N1CCCC1)C(=O)Nc1ccc2cc[nH]c2c1 | inactive | –
O=C(Nc1ccccc1F)NC1(C(F)(F)F)Oc2ccccc2O1 | inconclusive: 11.2 µM [inhibitor, partial curve, poor fit] | –
CC(C)OCCN1CCN(c2oc(-c3ccco3)nc2C#N)CC1 | inconclusive: 25.1 µM [inhibitor, partial curve, poor fit] | –
COc1ccc(CNC(=O)COc2ccc3ccc(=O)oc3c2)cc1 | inconclusive: 20 µM [inhibitor, partial curve, poor fit] | –
CC(C(=O)NCCc1c[nH]c2ccccc12)N1CCCCCC1 (stereo unspecified) | inconclusive: 20 µM [inhibitor, partial curve, poor fit] | –
O=S(=O)(O)c1cccnc1SCc1ccccc1 | inconclusive: 39.8 µM [inhibitor, single point] | –
CN(CC(=O)O)S(N)(=O)=O | inactive | –
COc1ccc(-c2nc(-c3nnn4c3COC(c3ccccc3Cl)C4)no2)cc1 (stereo unspecified) | inactive | –
Cn1cnc2cc(-c3ccc(CO)cc3)cc(C(=O)NCc3cccnc3)c21 | inconclusive: 39.8 µM [inhibitor, partial curve, poor fit] | –
Cc1cccnc1C(=O)N[C@@H]1CN(Cc2ccccc2)C[C@H]1CO | inactive | –
O=C(Nc1cccc(F)c1)[C@@H]1C[C@@H](c2ccc(F)cc2)N([S+](=O)([O-])c2cccnc2)C1 | inconclusive: 28.2 µM [inhibitor, partial curve, poor fit] | –
CCOc1ccccc1C(=O)Nc1nnc(COC)s1 | – | inconclusive: -36.6% [inhibitor]
Cc1ccc(CN2CCC[C@H]2c2nc(-c3ccc(OC4CCCCC4)nc3)no2)cc1 | inactive | –
COCCNC(=O)CCSc1nc(-c2ccc3c(c2)OCO3)cc(C(F)(F)F)n1 | inconclusive: 17.8 µM [inhibitor, partial curve, poor fit] | –
CN(Cc1ccccn1)C1CCCc2ccccc21 (stereo unspecified) | inconclusive: 20 µM [inhibitor, partial curve, poor fit] | –
